Laboratory results reported in PubChem BioAssay AID1508624 (National Center for Advancing Translational Sciences (NCATS), 2021).
The campaign covered roughly 48,000 compounds. About 120 (0.25%) were called active. Not shown: some 4% with an inconclusive outcome. Calls follow the shape of the dose curve; as a rule, active = well fitted activation curve with a large enough effect; inconclusive = small, poorly fitted or top-dose-only effect, or another doubt; inactive = no such curve, though single readings can be large or run the other way. This is one part of the list.

Experiment: Primary qHTS for Identification of Small Molecule Activators of Huntingtin-Antisense Promoter Activity; also: nearly all actives have a fitted effect of over 55% in size
Conditions: HEK293 HTT-AS promoter firefly luciferase reporter (activity 0% = vehicle and -100% = no light), 24 h; series mostly up to 57.5 µM; activity change, positive = activation: at the top concentration
Method in brief: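 HEK293 luciferase promoter-reporter cells (2,500/well) plated 24 h, then compounds added at up to 57.5 uM final for 24 h at 37 °C. Firefly luminescence by Dual-Glo, normalized to vehicle (0%) and zero RLU (-100%).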

Activity change, positive = activation, inactive:
O=C(O)c1c(O)c(-c2ccccc2)nc2ccccc12 -8.27%
Cc1ccc2c(c1)-c1c(cnn1CC(=O)N1CCN(c3ccccc3F)CC1)CO2 -8.9%
COCCCNC(=O)c1cnc2sc(N3CCCCCC3)nn2c1=O -5.66%
COc1cccc(NC(=O)CCc2nc3c(C)nn(-c4ccc(C)cc4)c3n(C)c2=O)c1 -13.5%
CCCCN(CCCNC(=O)CN1N=C(c2ccc(C)cc2)CCC1=O)c1ccccc1 -31%
O=c1c(=O)n(Cc2ccc(Cl)cc2)ccn1Cc1ccc(F)cc1 -12.4%
COc1cc2c(cc1OC)CN(CCc1ccc(NC(=O)c3cccc4c(=O)c5cccc(OC)c5[nH]c34)cc1)CC2 -63.5%
COc1cccc(OCC(=O)NCCS(=O)(=O)N2CCN(c3ccccc3F)CC2)c1 -11.6%
Cc1oc2ncn(CC(C)C)c(=O)c2c1C(=O)NCCc1ccccc1 -4.7%
Cc1ccc(-c2nc(CNC(=O)Nc3ccccc3)c(C)o2)cc1 -20.8%
COc1ccc(-c2cn3cccnc3n2)cc1NC(=O)Cc1ccccc1 -1.3%
CCc1nc2cccnc2n1-c1ccc(CC(=O)Nc2c(C)cccc2C)cc1 -13.2%
CCN(CC)C(=O)CSc1nc2ccsc2c(=O)n1Cc1ccccc1Cl -30.4%
Cc1cc(C)n2c(Nc3ccc(C(C)C)cc3)c(-c3ccsc3)nc2n1 9.38%
COCCNC(=O)Cn1c(=O)n(CCCCCC(=O)NCc2ccccc2Cl)c(=O)c2sccc21 -9.1%
Cc1ccc(NC(=O)Cn2c(=O)oc3cc(S(=O)(=O)N4CCCCC4)ccc32)c(Cl)c1 -46.2%
Cc1cccc(Cn2c(SCc3ccc(C(=O)NCc4ccccc4F)cc3)nc3ccncc32)c1 -20.8%
CCN(CC)CCCNC(=O)CCCn1ncn2c(cc3occc32)c1=O -1.81%
CC1CCCCN1C(=O)Cn1ncc2c3ccccc3n(Cc3ccccc3F)c2c1=O (stereo unspecified) -16.9%
COc1ccccc1-c1noc(-c2ccc(NC3CCCCC3)c([N+](=O)[O-])c2)n1 -11.8%
CC(C)(C)C1CCc2c(sc3nc(-c4cc5ccccc5oc4=O)[nH]c(=O)c23)C1 (stereo unspecified) 0.17%
CSc1ncc(C(=O)N2CCN(c3cccc(Cl)c3)CC2)c(C)n1 -22.7%
O=C(CCCn1c(=O)c2cccn2c2cccnc21)NCc1ccccc1Br 0.669%
O=C(CC1C(=O)N(c2ccccc2)C(=O)N1CCc1cccs1)Nc1ccc(F)cc1 (stereo unspecified) -5.27%
Cc1c(C)n(Cc2ccc(F)cc2)c2ccc(C(=O)NCc3ccco3)cc12 -20.7%
CCOc1ccc(CCNC(=O)Cn2nnc(-c3ccccc3Cl)n2)cc1OCC -16%
O=C(CSc1ncc(-c2ccccc2)[nH]1)Nc1ccc(Cl)cc1 6.83%
O=C(Cn1c(=O)nc(-c2ccccc2)c2cc(Cl)ccc21)N1CCN(c2ccccc2F)CC1 -12%
CCOC(=O)c1sc2ccccc2c1S(=O)(=O)N1CCN(c2cccc(C)c2)C(C)C1 (stereo unspecified) -28.4%
COc1ccc2c(c1)CC(C(=O)NCCCN1CCN(c3cccc(Cl)c3)CC1)CO2 (stereo unspecified) -24%
Cc1ccccc1CNC(=O)c1oc2c(c1C)-c1[nH]ncc1CC2 2.22%
Cc1ccccc1Nc1nn2c(=O)c3ccc(C(=O)NCCc4ccc(Cl)cc4)cc3nc2s1 -33.7%
Cc1ccc2nc(Cl)c3cc(C(=O)N4CCCCC4C)sc3c2c1 (stereo unspecified) -7.21%
COc1ccc(Cl)cc1NC(=O)CN1C(=O)C(C)(C)c2cc(S(=O)(=O)N3CCCCC3)ccc21 -29.1%
O=P(O)(O)C(O)(Cc1cccnc1)P(=O)(O)O
CC(C)C1C(=O)Nc2ccc(S(=O)(=O)NCCc3ccc(Cl)cc3)cc21 (stereo unspecified) -30%
Cc1cccc(-n2ncc(C(=O)N3CCN(c4ccc(C)cc4C)CC3)c2C2CCN(C(=O)OC(C)(C)C)CC2)c1 3.67%
Cc1cc(N2CCN(C)CC2)nc2ccc(NC(=O)Nc3cccc(Cl)c3)cc12 -1.24%
Cc1cn(C)c(CC(=O)NCc2ccccc2)c1C(=O)O -4.82%
Cc1ccsc1CN(C(=O)c1oc2ccc(Br)cc2c1C)C1CCS(=O)(=O)C1 (stereo unspecified) -37%
CCN1c2ccccc2-c2nc(SCC(=O)NCc3ccc(Cl)cc3)ncc2S1(=O)=O -25.4%
CCOc1ccc(C2c3c(oc4ccc(C)cc4c3=O)C(=O)N2CCCN2CCOCC2)cc1 (stereo unspecified) -8.64%
CCOc1ccc(Nc2c(S(=O)(=O)c3ccc(Cl)cc3)cnc3ccc(OCC)cc23)cc1 -19.3%
Cc1ccc(Cl)cc1N1CCN(C(=O)c2c(C)oc3ncnc(N4CCCCC4)c23)CC1 -40.2%
COc1ccc(-n2nc(CCC(=O)N(C)O)cc2-c2ccc(Cl)cc2)cc1 -1.17%
CCCCOc1cccc(C(=O)Nc2cc(NC(=O)c3ccco3)ccc2OC)c1 -22%
CCc1ccc(CN2CCc3nc(N4CCN(c5ccccc5F)CC4)ncc3C2)cc1 -69%
CCc1ccc(C2=C(C)C(N3CCC(C(=O)NCc4ccccc4)CC3)=NS2(=O)=O)cc1 -22.1%
Cc1ccc2c(c1)-c1c(cnc3cc(-c4ccc(F)cc4)nn13)CO2 -4.95%
Cc1ccc(CNC(=O)c2c(O)nc3cc(C)ccn3c2=O)cc1 -18%
CC(c1ccccc1)n1cc2c(c1-c1ccccc1Br)c(=O)n(C)c(=O)n2C (stereo unspecified) -40.7%
COc1ccc(-c2cnc(C)o2)cc1S(=O)(=O)Nc1c(C)cc(C)cc1C -23.6%
COc1cccc(NC(=O)CCc2c(C)nc3nc(CNC(=O)c4cccc(F)c4)nn3c2C)c1 -14.1%
C#CCOc1ccc(-c2nnc(Nc3ccc(NC(C)=O)cc3)c3ccccc23)cc1 -14.7%
CC(C)COc1ccc(C(=O)N2CCCCC2CCN2CCCCC2)cc1 (stereo unspecified) -2.36%
CC(=O)OCC(=O)[C@@]12OC(C)(C)O[C@H]1C[C@H]1[C@@H]3C[C@H](F)C4=CC(=O)C=C[C@]4(C)[C@@]3(F)[C@@H](O)C[C@@]12C 0.58%
COc1ccc(CCNC(=O)c2cnn(-c3cccc(C)c3)c2C2CCN(C(=O)OC(C)(C)C)CC2)cc1OC -27.1%
COc1cccc2c1ncc1c(-c3ccc(C)cc3)nn(-c3ccc(F)cc3)c12 -25.1%
Cc1cccc(-c2nnn3c2nc(NCc2ccc4c(c2)OCO4)c2ccccc23)c1 12.5%
O=C(NCCc1ccccc1)c1ccc2c(c1)N(Cc1ccccc1)C(=O)c1ccccc1S2(=O)=O -0.974%
O=C(NCCc1ccccc1)C1CCN(Cc2cc3ccccc3n2Cc2cccc(Cl)c2)CC1 -26.6%
